According to patent US20230312724A1 (KADMON, published 2023):

T1: mouse B7-H4-his (mouse, UniProt Q7TSP5 25-257)
T1 construct: also called mB7-H4-his; mB7-H4-His; not shown: his tag
T1 sequence: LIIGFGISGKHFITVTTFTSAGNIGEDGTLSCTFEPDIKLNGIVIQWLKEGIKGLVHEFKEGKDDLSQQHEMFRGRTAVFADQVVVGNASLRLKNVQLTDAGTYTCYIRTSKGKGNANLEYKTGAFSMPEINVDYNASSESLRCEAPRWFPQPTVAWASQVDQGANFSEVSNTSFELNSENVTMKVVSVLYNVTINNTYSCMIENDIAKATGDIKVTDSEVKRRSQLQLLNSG

T2: human B7-H4 expressed on cells (human, UniProt Q7Z7D3 25-282)
T2 construct: Transfected CHO cells or tumor cell lines that carry hB7-H4; also called cellular hB7-H4
T2 sequence: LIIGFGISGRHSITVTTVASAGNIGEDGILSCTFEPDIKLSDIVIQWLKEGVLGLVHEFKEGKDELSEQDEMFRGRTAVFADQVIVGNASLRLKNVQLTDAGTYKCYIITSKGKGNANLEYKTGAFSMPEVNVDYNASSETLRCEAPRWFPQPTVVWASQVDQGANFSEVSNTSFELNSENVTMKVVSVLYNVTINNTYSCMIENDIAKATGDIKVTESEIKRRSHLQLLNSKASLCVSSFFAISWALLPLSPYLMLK


What was measured:
[1] = target: T3, human B7-H4-Fc (human); test: ELISA on coated human B7-H4Fc
T3 construct: also called hB7-H4-Fc; hB7-H4 Fc
Description: (§1) About 1-2 μg/ml of human or mouse B7-H4-Fc (or his-tagged) was immobilized on ELISA plates (Immuno 2HB, Thermo scientific, cat #3455) at 4° C. overnight. After blocking the plates with 3% PBS+milk, serial diluted antibodies were added to the blocked plates and incubated at RT for 1-1.5 h. After washing the plates with PBS-T (0.05%), horse radish peroxidase (HRP)-conjugated antibody targeting the hFab was added to the plate. Signals were developed by adding 3,3′,5,5′-Tetramethylbenzidine (TMB (followed 1N of H₂SO₄ to stop the reaction. The OD at 450 nm was read by ELISA plate reader (Infinite M1000 from TECAN). GraphPad from Prism was used to plot OD450 vs. antibody concentration curve and to calculate the EC50 values.

[2] = target: T1, mouse B7-H4-his; test: ELISA on coated mouse B7-H4his
Description: as §1

[3] = target: T2, human B7-H4 expressed on cells; test: flow cytometry on SK-BR-3 cells
Description: Cells were harvested, washed once, and then re-suspended to the concentration of 1×10⁶ cells/ml in ice cold FACS Buffer. 25 μl of cell suspension was added to each well of a 96-well round-bottom microliter plate. Serially diluted antibodies or fusion proteins were added to each well and incubated for 1 hour at 4° C. Cells were washed three times by centrifugation at 1500 rpm for 5 minutes, and then stained with secondary antibody (1:200 dilution) for 30 min at 4° C. in the dark. Cells were washed once, re-suspended in 100 μl PBS buffer and then analyzed using Guava Flow Cytometry EasyCyte system.

[4] = target: T4, mouse B7-H4-Fc (mouse; human); test: ELISA on coated mouse B7-H4Fc
T4 construct: also called mB7-H4-Fc; mB7-H4-hFc
Description: as §1

Binder	EC50 (read off the curve) [1]	EC50 (read off the curve) [2]	EC50 (read off the curve) [3]	EC50 (read off the curve) [4]	binding result [2]	binding result [4]
39A11/57G8-IL15-LS (other, As 57G8/IL15 with M428L/N434S (LS) in both heavy chains) heavy 1: EVQLLESGGGLVQPGGSLRLSCAASGFTFSSYGMHWVRQAPGKGLEWVASISSSSGYIYYADSVKGRFTISRDNSKNTLYLQMNSLRAEDTAVYYCARASSGMDVWGQGTTVTVSSASTKGPSVFPLAPSSKSTSGGTAALGCLVKDYFPEPVTVSWNSGALTSGVHTFPAVLQSSGLYSLSSVVTVPSSSLGTQTYICNVNHKPSNTKVDKKVEPKSCDKTHTCPPCPAPELLGGPSVFLFPPKPKDTLMISRTPEVTCVVVDVSHEDPEVKFNWYVDGVEVHNAKTKPREEQYNSTYRVVSVLTVLHQDWLNGKEYKCKVSNKALPAPIEKTISKAKGQPREPQVYTLPPCRDELTKNQVSLWCLVKGFYPSDIAVEWESNGQPENNYKTTPPVLDSDGSFFLYSKLTVDKSRWQQGNVFSCSVLHEALHSHYTQKSLSLSPGK heavy 2: EVQLLESGGGLVQPGGSLRLSCAASGFTFSSYGMHWVRQAPGKGLEWVASISSSSGYIYYADSVKGRFTISRDNSKNTLYLQMNSLRAEDTAVYYCARASSGMDVWGQGTTVTVSSASTKGPSVFPLAPSSKSTSGGTAALGCLVKDYFPEPVTVSWNSGALTSGVHTFPAVLQSSGLYSLSSVVTVPSSSLGTQTYICNVNHKPSNTKVDKKVEPKSCDKTHTCPPCPAPELLGGPSVFLFPPKPKDTLMISRTPEVTCVVVDVSHEDPEVKFNWYVDGVEVHNAKTKPREEQYNSTYRVVSVLTVLHQDWLNGKEYKCKVSNKALPAPIEKTISKAKGQPREPQVCTLPPSRDELTKNQVSLSCAVKGFYPSDIAVEWESNGQPENNYKTTPPVLDSDGSFFLVSKLTVDKSRWQQGNVFSCSVLHEALHSHYTQKSLSLSPGSCPPPMSVEHADIWVKSYSLYSRERYICNSGFKRKAGTSSLTECVLNKATNVAHWTTPSLKCIRDPALVHQRPAPPSGGSGGGGSGGGSGGGGSLQ[letters of about 120 residues not shown] light: DIQMTQSPSSLSASVGDRVTITCRASQSIRSYLNWYQQKPGKAPKLLIYYASSLQSGVPSRFSGSGSGTDFTLTISSLQPEDFATYYCQQYYSTPLTFGQGTKVEIKRTVAAPSVFIFPPSDEQLKSGTASVVCLLNNFYPREAKVQWKVDNALQSGNSQESVTEQDSKDSTYSLSSTLTLSKADYEKHKVYACEVTHQGLSSPVTKSFNRGEC	~0.2 nM	~0.2 nM	~2 nM	~0.2 nM		
3F2/50A10-IL15-LS (other, As 50A10/IL15 with M428L/N434S (LS) in both heavy chains) heavy 1: QVQLVQSGAEVKKPGASVKVSCKASGYTFTAQYMYWVRQAPGQGLEWMGRINPTSGNTVYAQKLQGRVTMTRDTSTSTVYMELSSLRSEDTAVYYCARGINWFDPWGQGTLVTVSSASTKGPSVFPLAPSSKSTSGGTAALGCLVKDYFPEPVTVSWNSGALTSGVHTFPAVLQSSGLYSLSSVVTVPSSSLGTQTYICNVNHKPSNTKVDKKVEPKSCDKTHTCPPCPAPELLGGPSVFLFPPKPKDTLMISRTPEVTCVVVDVSHEDPEVKFNWYVDGVEVHNAKTKPREEQYNSTYRVVSVLTVLHQDWLNGKEYKCKVSNKALPAPIEKTISKAKGQPREPQVYTLPPCRDELTKNQVSLWCLVKGFYPSDIAVEWESNGQPENNYKTTPPVLDSDGSFFLYSKLTVDKSRWQQGNVFSCSVLHEALHSHYTQKSLSLSPGK heavy 2: QVQLVQSGAEVKKPGASVKVSCKASGYTFTAQYMYWVRQAPGQGLEWMGRINPTSGNTVYAQKLQGRVTMTRDTSTSTVYMELSSLRSEDTAVYYCARGINWFDPWGQGTLVTVSSASTKGPSVFPLAPSSKSTSGGTAALGCLVKDYFPEPVTVSWNSGALTSGVHTFPAVLQSSGLYSLSSVVTVPSSSLGTQTYICNVNHKPSNTKVDKKVEPKSCDKTHTCPPCPAPELLGGPSVFLFPPKPKDTLMISRTPEVTCVVVDVSHEDPEVKFNWYVDGVEVHNAKTKPREEQYNSTYRVVSVLTVLHQDWLNGKEYKCKVSNKALPAPIEKTISKAKGQPREPQVCTLPPSRDELTKNQVSLSCAVKGFYPSDIAVEWESNGQPENNYKTTPPVLDSDGSFFLVSKLTVDKSRWQQGNVFSCSVLHEALHSHYTQKSLSLSPGSCPPPMSVEHADIWVKSYSLYSRERYICNSGFKRKAGTSSLTECVLNKATNVAHWTTPSLKCIRDPALVHQRPAPPSGGSGGGGSGGGSGGGGSLQ[letters of about 120 residues not shown] light: DIQMTQSPSSLSASVGDRVTITCQASQDISNYINWYQQKPGKAPKLLIYAASRLQSGVPSRFSGSGSGTDFTLTISSLQPEDFATYYCQQSYRSPFTFGQGTKLEIKRTVAAPSVFIFPPSDEQLKSGTASVVCLLNNFYPREAKVQWKVDNALQSGNSQESVTEQDSKDSTYSLSSTLTLSKADYEKHKVYACEVTHQGLSSPVTKSFNRGEC	~0.1 nM				no binding (tested: 10 nM)	no binding (tested: 10 nM)
